Assay [1] has as its target Recombinant His-OGG1 (UniProt O15527). Kind of assay: pull-down; reverse pull-down: His-OGG1 used to pull down GST-MSK1 and its mutants (Fig. S5B); both purified.
The target in assay [2] is Flag-MSK1 (UniProt O75582). Kind of assay: co-IP; HEK293 cells expressing Flag-MSK1 or Flag-PKAc, TNFα 1 h; whole-cell extracts, Flag beads; Western blot of endogenous OGG1 and RelA/p65.
The target of assay [3] is GST-MSK1 (full length) (UniProt O75582). In words: pull-down; GST pull-down: His-OGG1 (increasing amounts) incubated with GST, GST-MSK1, GST-MSK1 truncations or GST-PKAc on GST-tag resin; pulled-down OGG1 detected by Western blot; both purified. On the technique in general: In western blotting, separated proteins are transferred to a membrane and probed.
For assay [4], the target named is GST-MSK1 1-725 (UniProt O75582). Described as above.
The target in assay [5] is GST-MSK1 1-330 (UniProt O75582). The description is as above.
Assay [6] concerns the target T1, GST-MSK1 330-803 (UniProt O75582).
T1 sequence: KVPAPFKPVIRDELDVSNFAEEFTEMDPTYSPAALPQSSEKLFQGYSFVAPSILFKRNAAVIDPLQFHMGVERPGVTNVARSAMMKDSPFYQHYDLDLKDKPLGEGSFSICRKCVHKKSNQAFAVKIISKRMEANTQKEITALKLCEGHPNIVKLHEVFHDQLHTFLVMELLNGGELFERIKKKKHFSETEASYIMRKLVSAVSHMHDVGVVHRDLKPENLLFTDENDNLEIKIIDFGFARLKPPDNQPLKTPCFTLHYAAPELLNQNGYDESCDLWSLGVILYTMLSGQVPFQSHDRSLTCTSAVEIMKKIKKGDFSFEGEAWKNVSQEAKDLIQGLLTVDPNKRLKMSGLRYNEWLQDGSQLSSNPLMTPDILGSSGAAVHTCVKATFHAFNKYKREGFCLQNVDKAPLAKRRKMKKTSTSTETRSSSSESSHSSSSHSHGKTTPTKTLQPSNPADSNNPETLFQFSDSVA
Described as above.

Chains of the proteins cited; added tags and fusions are not shown.
UniProt O15527: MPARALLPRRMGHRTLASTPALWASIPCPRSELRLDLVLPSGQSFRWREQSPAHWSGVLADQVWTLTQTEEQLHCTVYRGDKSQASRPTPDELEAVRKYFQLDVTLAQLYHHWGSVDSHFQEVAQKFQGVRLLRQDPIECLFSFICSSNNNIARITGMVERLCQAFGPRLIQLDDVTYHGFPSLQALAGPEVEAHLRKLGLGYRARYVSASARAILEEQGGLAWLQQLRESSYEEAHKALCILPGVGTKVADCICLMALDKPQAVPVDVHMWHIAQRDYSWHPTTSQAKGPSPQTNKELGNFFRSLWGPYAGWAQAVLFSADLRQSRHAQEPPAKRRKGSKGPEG
UniProt Q04206: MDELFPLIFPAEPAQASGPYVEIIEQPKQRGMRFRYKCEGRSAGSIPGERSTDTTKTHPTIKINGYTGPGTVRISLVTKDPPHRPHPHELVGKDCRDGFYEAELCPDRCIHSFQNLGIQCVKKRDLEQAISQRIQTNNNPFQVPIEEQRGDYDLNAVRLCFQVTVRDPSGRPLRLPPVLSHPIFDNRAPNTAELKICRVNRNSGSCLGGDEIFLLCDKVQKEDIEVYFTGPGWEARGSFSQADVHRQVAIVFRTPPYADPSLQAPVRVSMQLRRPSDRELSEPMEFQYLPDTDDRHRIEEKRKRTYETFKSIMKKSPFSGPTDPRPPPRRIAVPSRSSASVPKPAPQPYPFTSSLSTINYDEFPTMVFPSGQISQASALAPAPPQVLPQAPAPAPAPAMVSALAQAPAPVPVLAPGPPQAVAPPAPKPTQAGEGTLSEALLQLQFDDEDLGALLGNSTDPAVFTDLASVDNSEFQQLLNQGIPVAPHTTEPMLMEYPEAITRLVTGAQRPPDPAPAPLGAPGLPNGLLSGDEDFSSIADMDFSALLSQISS

Assay [7] deals with GST-MSK1 1-426 (UniProt O75582). The description is as above.
In assay [8] the target is YFP-OGG1 (8-oxoguanine DNA glycosylase 1) (UniProt O15527). Kind of assay: co-IP; HEK293 cells expressing YFP-OGG1 (wt, K249Q or F319A), mock or TNFα 20 ng/ml 1 h, with or without 1 h pretreatment with NAC, TH5487 or TH2840; whole-cell extracts (50 mM Tris-HCl pH 7.5, 150 mM NaCl, 1% Nonidet P-40), GFP beads 3 h at 4 °C; Western blot of endogenous proteins.

Results are given in words; binding and its absence hold for the method and conditions named. For some of these results: In cells and extracts the contact can be indirect. Some entries that bind do so weakly or less than the wild type. For some of these results: Tags and fused reporters may be left off the sequences shown.

In the case of “GST-MSK1 1-426 (from UniProt O75582 1-426) (domain or fragment)”, the binding entry in assay [1] is listed as “binds”. Take “8-oxoguanine DNA glycosylase 1 (OGG1), endogenous (from UniProt O15527 1-345) (enzyme)”: the binding result in assay [2] is recorded as “binds”. As for “GST-MSK1 1-725 (from UniProt O75582 1-725) (domain or fragment)”, in assay [1], the binding entry was “binds”. On to “GST-MSK1 1-330 (from UniProt O75582 1-330) (domain or fragment)”, for which the binding entry in assay [1] is given as “binds”. Turning to “Recombinant His-OGG1 (from UniProt O15527 1-345) (enzyme)”, the binding result is reported as “binds” in assay [3]; “binds” in assay [4]; “binds” in assay [5]; “no binding” in assay [6]; “binds” in assay [7].

Regarding “RelA/p65, endogenous (from UniProt Q04206 1-551)”, in assay [8], the binding entry is “binds”.

These data come from PMC10641171.
